Results as given in the supplement of paper PMC10369915.
Some of the results follow. No stated cut-off is given here; in the data, active = 3.2 or more and inactive = the rest. Most of these values are background signal.

B1: ANXA13_Y90_R86H (peptide)
chain: DHPSEYAARQL
B2: ANK2_Y1455 (peptide)
chain: ITLPIYTKESE
B3: ANTXR2_Y381_Y381C (peptide)
chain: VDASYCGGRGV
B4: APBB1IP_Y331 (peptide)
chain: SWKRRYFLLRA
B5: ANXA3_Y295_YF (peptide)
chain: EFKKHYGFSLF
B6: APOA4_Y310 (peptide)
chain: RRVEPYGENFN
B7: ANPEP_Y600 (peptide)
chain: RQQQDYWLIDV
B8: ANTXR2_Y381_Y381C_YF (peptide)
chain: VDASFCGGRGV
B9: ANXA13_Y90 (peptide)
chain: DRPSEYAARQL
B10: APBA1_Y187_S184A_YF (peptide)
chain: PFAEPYADFGG
B11: ANPEP_Y600_I603K (peptide)
chain: RQQQDYWLKDV
B12: ANGPTL7_Y145_R140H (peptide)
chain: HISGVYKLPPD
B13: APCS_Y142 (peptide)
chain: GLRQGYFVEAQ
B14: ANK2_Y3907_R3906W (peptide)
chain: KIIRWYVSSEG
B15: ANXA3_Y15 (peptide)
chain: GTVRDYPDFSP
B16: ANKZF1_Y572 (peptide)
chain: RARPPYTVAAD
B17: ANOS1_Y217 (peptide)
chain: IEPVIYVVQRR
B18: ANOS1_Y259_R262P (peptide)
chain: RPSRWYQFPVA
B19: APOB_Y276 (peptide)
chain: SYKNKYGMVAQ

Each binder was assayed against SHP2 C-SH2 domain E139D (assay: enrichment score (SH2-bound / input frequency) (ratio); bacterial display of known human phosphotyrosine sites (pTyr-Var adds point mutants) read by sequencing; higher = stronger binding; tyrosines were phosphorylated by kinases first). Details: peptide library: pTyr-Var.
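Further: displayed peptides selected on beads carrying the immobilized SH2 domain, with library peptides lacking any tyrosine serving as negative controls.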

Enrichment score, inactive:
B1 0.622
B2 1.15
B3 0.646
B4 0.201
B5 1.46
B6 0.602
B7 0.922
B8 0.726
B9 0.468
B10 0.624
B11 0.969
B12 1.01
B13 0.764
B14 2.27
B15 0.662
B16 0.904
B17 0.251
B18 2.94
B19 0.444

These binders were tested against SHP2 C-SH2 domain wild-type in the same assay as above. Details: peptide library: pTyr-Var.

Enrichment score, inactive:
B1 0.441
B2 1.12
B3 2.12
B4 0.309
B5 1.08
B6 0.627
B7 0.913
B8 0.878
B9 0.636
B10 0.603
B11 0.376
B12 1.09
B13 0.985
B14 2.3
B15 0.601
B16 0.883
B17 0.318
B18 2.4
B19 0.518

Each binder was assayed against SHP2 N-SH2 domain L43F in the same assay as above. Details: peptide library: pTyr-Var.

Enrichment score, inactive:
B1 0.471
B2 1.18
B3 2.77
B4 0.356
B5 1.06
B6 0.502
B7 1.12
B8 0.776
B9 0.444
B10 0.748
B11 0.743
B12 0.951
B13 0.824
B14 1.99
B15 0.822
B16 0.698
B17 0.319
B18 3.18
B19 0.596

The binders below were run against SHP2 N-SH2 domain T42A in the same assay as above. Details: peptide library: pTyr-Var.

Enrichment score, inactive:
B1 0.402
B2 1.05
B3 2.2
B4 0.226
B5 0.991
B6 0.56
B7 1.01
B8 0.653
B9 0.449
B10 0.655
B11 0.472
B12 0.718
B13 0.767
B14 2.18
B15 0.634
B16 0.616
B17 0.208
B18 2.82
B19 0.54

What follows are binders tested against SHP2 N-SH2 domain T52S in the same assay as above. Details: peptide library: pTyr-Var.

Enrichment score, inactive:
B1 0.508
B2 1.25
B3 2.76
B4 0.216
B5 1
B6 0.509
B7 1.27
B8 0.623
B9 0.499
B10 0.58
B11 0.603
B12 0.967
B13 0.771
B14 2.19
B15 0.62
B16 0.884
B17 0.213
B18 3.02
B19 1.31

Each binder was assayed against SHP2 N-SH2 domain wild-type in the same assay as above. Details: peptide library: pTyr-Var.

Enrichment score, inactive:
B1 0.552
B2 1.16
B3 2.62
B4 0.246
B5 0.942
B6 0.606
B7 0.843
B8 0.867
B9 0.788
B10 0.823
B11 0.529
B12 1.1
B13 0.851
B14 2.04
B15 0.874
B16 0.936
B17 0.27
B18 2.25
B19 0.487
